110 sequences from the supplement of paper PMC3334620 can be followed below.

Over roughly 33,000 sequences, “E-score (-0.5 to 0.5)” has its median near -0.035; the highest 2% begin near 0.35. The list shows a part of the results.

This assay has as its target T1, Pdr3 (UniProt P33200).
T1 sequence: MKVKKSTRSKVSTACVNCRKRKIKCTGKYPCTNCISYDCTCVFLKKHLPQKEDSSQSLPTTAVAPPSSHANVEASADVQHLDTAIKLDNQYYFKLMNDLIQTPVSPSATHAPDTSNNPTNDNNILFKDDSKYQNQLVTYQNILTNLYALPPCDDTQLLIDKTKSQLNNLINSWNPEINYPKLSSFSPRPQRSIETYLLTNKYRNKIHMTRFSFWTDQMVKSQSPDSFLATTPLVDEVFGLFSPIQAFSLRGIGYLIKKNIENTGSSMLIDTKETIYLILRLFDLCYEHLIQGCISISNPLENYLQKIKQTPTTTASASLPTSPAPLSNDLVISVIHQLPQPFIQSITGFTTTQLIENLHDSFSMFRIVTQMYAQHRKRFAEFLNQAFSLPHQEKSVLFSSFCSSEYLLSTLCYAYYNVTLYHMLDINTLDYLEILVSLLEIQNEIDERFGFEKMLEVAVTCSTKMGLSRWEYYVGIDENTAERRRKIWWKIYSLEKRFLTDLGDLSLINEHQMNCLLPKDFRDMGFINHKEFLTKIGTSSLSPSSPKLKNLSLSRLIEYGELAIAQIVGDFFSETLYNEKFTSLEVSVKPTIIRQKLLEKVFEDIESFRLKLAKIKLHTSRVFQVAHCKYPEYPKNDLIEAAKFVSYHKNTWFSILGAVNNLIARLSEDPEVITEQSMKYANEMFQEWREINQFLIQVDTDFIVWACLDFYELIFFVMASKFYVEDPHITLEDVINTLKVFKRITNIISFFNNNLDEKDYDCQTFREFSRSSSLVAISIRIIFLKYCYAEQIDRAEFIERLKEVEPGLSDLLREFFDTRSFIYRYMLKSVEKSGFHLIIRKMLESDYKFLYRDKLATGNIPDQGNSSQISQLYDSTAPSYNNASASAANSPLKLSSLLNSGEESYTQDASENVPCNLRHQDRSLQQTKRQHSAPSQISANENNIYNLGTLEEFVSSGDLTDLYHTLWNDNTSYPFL
The assay can be described thus: PBM E-score (8-mer binding enrichment) (E-score (-0.5 to 0.5)); higher = stronger / more preferred TF binding; most listed sequences are background and not binding sites. The settings on record: protein concentration: 200 nM; construct: GST-full length. In a few lines:
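Full-length yeast transcription factors or their DNA-binding domains, GST-tagged and expressed with PURExpress, were applied at about 100-200 nM to universal all-10-mer Agilent arrays. These arrays had been made double-stranded by primer extension on fresh or once-stripped slides. Detection used fluorescent anti-GST, normalisation used masliner, and E-scores for ungapped eight-base words pooled with reverse complements came from the Universal PBM Analysis Suite.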
With AATGTAAG, the “PBM E-score” value was found to be 0.033.

Consider ACGCAGGA, for which the “PBM E-score” value was -0.232.

Consider AAGAGGGG, for which the “PBM E-score” value is -0.158.

On to CCGCGTCG, for which the “PBM E-score” value was 0.269.

As to GCTTTAAA, the “PBM E-score” value is -0.0479.

As to GGGCGTCA, the “PBM E-score” value was 0.0172.

Take GCCGCCAA: the “PBM E-score” value was determined as 0.113.

Turning to GATTTCAC, the “PBM E-score” value was 0.0747.

Consider CGCAAATA, for which the “PBM E-score” value is 0.125.

Turning to CCCTCACC, the “PBM E-score” value was -0.0867.

GAACATGC: the “PBM E-score” value was found to be 0.0198.

For CAATCGCC, the “PBM E-score” value was determined as 0.0564.

With AGCGATCG, the “PBM E-score” value came to 0.0757.

Take ATCAGCAC: the “PBM E-score” value was -0.0673.

Regarding AATTCAAT, the “PBM E-score” value was -0.0229.

For the sequence AGTCGAAC, the “PBM E-score” value came to 0.0104.

On to ACGAAATC, for which the “PBM E-score” value is 0.0416.

As for ATTTAATG, the “PBM E-score” value was determined as 0.11.

As for ATGTAGCC, the “PBM E-score” value is -0.165.

For ACATTGGA, the “PBM E-score” value was -0.186.

For the sequence ACGAAGCT, the “PBM E-score” value is -0.097.

For AGAGCCGC, the “PBM E-score” value was 0.0785.

With CCGCAACA, the “PBM E-score” value was determined as 0.219.

For CGCATCAG, the “PBM E-score” value was determined as 0.142.

In the case of CCGTTCTA, the “PBM E-score” value turned out to be 0.239.

Turning to CGCGCCAA, the “PBM E-score” value came out at 0.203.

Regarding TGAAGGAA, the “PBM E-score” value was -0.0606.

ACGGGTCG: the “PBM E-score” value amounted to 0.227.

As to ATATCACC, the “PBM E-score” value is 0.0724.

With GCTGATCA, the “PBM E-score” value was determined as 0.033.

Consider TATTGAAA, for which the “PBM E-score” value turned out to be 0.0374.

Consider ATTCTTGA, for which the “PBM E-score” value was -0.0577.

For the sequence ATTGCCCG, the “PBM E-score” value amounted to 0.0498.

With AGCGCTGA, the “PBM E-score” value stood at 0.186.

Regarding CATGGCAG, the “PBM E-score” value was 0.0653.

As to ATCAACCA, the “PBM E-score” value was -0.0605.

On to CCGAGCCG, for which the “PBM E-score” value was 0.359.

As for CCGGTTAC, the “PBM E-score” value was found to be 0.191.

For ATGATCAA, the “PBM E-score” value is -0.164.

For the sequence GGTCCTAC, the “PBM E-score” value was -0.179.

On to ATTCGTCC, for which the “PBM E-score” value was determined as 0.275.

For the sequence ATATACGA, the “PBM E-score” value is -0.238.

With CGCAGCGC, the “PBM E-score” value stood at 0.0256.

As to ATAGCGAC, the “PBM E-score” value was -0.186.

Regarding ACATGTCT, the “PBM E-score” value is -0.0977.

AAAGTGAG: the “PBM E-score” value is -0.016.

On to AGAGGGCA, for which the “PBM E-score” value was -0.279.

On to GCGCCCAC, for which the “PBM E-score” value was -0.0118.

On to ACGAAACT, for which the “PBM E-score” value is -0.129.

On to CTAGTGGA, for which the “PBM E-score” value was -0.233.

For the sequence AATGCTAC, the “PBM E-score” value is 0.0829.

Take CGCATTCA: the “PBM E-score” value is 0.0984.

On to GTCTCTTA, for which the “PBM E-score” value came out at 0.0669.

Regarding AAGCAACG, the “PBM E-score” value stood at 0.0979.

With GAACCGCA, the “PBM E-score” value came to 0.132.

For AACCTAGA, the “PBM E-score” value came out at 0.11.

For the sequence ATGACTGA, the “PBM E-score” value was -0.131.

Consider GAGCTTAA, for which the “PBM E-score” value is -0.0421.

As to CTTCCACC, the “PBM E-score” value is -0.144.

In the case of CCGGTACG, the “PBM E-score” value worked out at 0.108.

Regarding AGGAGTAA, the “PBM E-score” value was -0.0324.

With GCACTCGA, the “PBM E-score” value was 0.0201.

Consider CGAATAGA, for which the “PBM E-score” value is -0.069.

As for CCTTGGCG, the “PBM E-score” value is -0.0565.

Consider ACTTATTA, for which the “PBM E-score” value was -0.0477.

For the sequence ACCAGTTC, the “PBM E-score” value was 0.0316.

Take CATAAGCG: the “PBM E-score” value is -0.162.

On to ATCTAGTA, for which the “PBM E-score” value is -0.0835.

Consider GTCCGTAA, for which the “PBM E-score” value turned out to be 0.191.

On to CCGGAGAA, for which the “PBM E-score” value was determined as 0.385.

Take CGTGTGAC: the “PBM E-score” value was -0.125.

Consider GCCATCCA, for which the “PBM E-score” value was determined as 0.0164.

For the sequence ATCAGGGA, the “PBM E-score” value was -0.258.

On to AAGTTGGC, for which the “PBM E-score” value is -0.0418.

Regarding ATGCTATG, the “PBM E-score” value is -0.155.

Take GCTGTTCC: the “PBM E-score” value came to 0.147.

Take ACTCTAAG: the “PBM E-score” value was -0.173.

As for CGATTGCA, the “PBM E-score” value was found to be 0.0912.

On to ACTAGTCG, for which the “PBM E-score” value was -0.0491.

Turning to CCCCTTAG, the “PBM E-score” value is -0.0978.

On to AACAACCC, for which the “PBM E-score” value was 0.145.

CTGTCCTA: the “PBM E-score” value is -0.293.

In the case of GATTCGTA, the “PBM E-score” value is -0.00377.

CATCGAAG: the “PBM E-score” value is -0.0311.

With AATTCTGG, the “PBM E-score” value is -0.128.

Consider ATTCGTGC, for which the “PBM E-score” value came out at 0.0636.

In the case of ACTCATTC, the “PBM E-score” value was determined as 0.198.

GTATATTA: the “PBM E-score” value is -0.208.

With CGCTATCC, the “PBM E-score” value came out at 0.158.

On to AGGTCTAC, for which the “PBM E-score” value is -0.148.

For TCTCCAAA, the “PBM E-score” value is -0.124.

On to AAAGGCTT, for which the “PBM E-score” value is -0.24.

For AATGTTGA, the “PBM E-score” value was -0.0567.

In the case of TGATAGAA, the “PBM E-score” value was -0.143.

For GATTCTTA, the “PBM E-score” value is -0.0304.

Consider AAGTGCTG, for which the “PBM E-score” value is -0.172.

Turning to AATCGATC, the “PBM E-score” value stood at 0.00169.

On to GCAAGTAC, for which the “PBM E-score” value is -0.141.

As for GAAAGGGC, the “PBM E-score” value was -0.136.

As to AAGACAAG, the “PBM E-score” value worked out at 0.0204.

Turning to CTTGTCAC, the “PBM E-score” value was -0.089.

As for CGTGGGTA, the “PBM E-score” value was found to be 0.0427.

In the case of CTGAGTCC, the “PBM E-score” value is -0.146.

For the sequence AGATGTGG, the “PBM E-score” value is -0.207.

With AGCATGAC, the “PBM E-score” value was -0.13.

As to CCTAAACA, the “PBM E-score” value is -0.15.

Take ATATCCAA: the “PBM E-score” value is 0.0105.

Turning to CCGAGCGC, the “PBM E-score” value is 0.251.

For the sequence AATTGTTC, the “PBM E-score” value came out at 0.16.

Take TAGTCTAA: the “PBM E-score” value is -0.193.
